These are yes or no findings as the source states them, for the method shown. For some assays here: In cells and extracts the contact can be indirect. Some entries that bind do so weakly or less than the wild type. For some assays here: Tags and fused reporters may be left off the sequences shown.
T1: recombinant His-tagged FGF12 (UniProt P61328)
T1 sequence: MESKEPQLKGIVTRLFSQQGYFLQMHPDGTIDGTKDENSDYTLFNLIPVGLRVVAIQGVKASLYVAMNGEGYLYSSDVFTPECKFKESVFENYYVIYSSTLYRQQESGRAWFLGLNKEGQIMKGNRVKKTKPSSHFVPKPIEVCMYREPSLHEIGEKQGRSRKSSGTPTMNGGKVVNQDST

T2: FGF12-SBP (UniProt P61328)
T2 sequence: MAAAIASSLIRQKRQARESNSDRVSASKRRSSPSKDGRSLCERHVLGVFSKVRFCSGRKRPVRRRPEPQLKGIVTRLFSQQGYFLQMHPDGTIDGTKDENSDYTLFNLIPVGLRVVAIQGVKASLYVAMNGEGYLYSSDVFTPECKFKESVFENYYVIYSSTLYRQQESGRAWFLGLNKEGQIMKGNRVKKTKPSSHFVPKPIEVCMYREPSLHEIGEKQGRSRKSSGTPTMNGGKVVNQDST

T3: FGF12 (endogenous, HEK 293 cells lacking ectopic FGF12) (human (endogenous in HEK 293)) (UniProt P61328)
T3 sequence: T2 sequence

T4: FGF11-mGFP-myc (UniProt Q92914)
T4 sequence: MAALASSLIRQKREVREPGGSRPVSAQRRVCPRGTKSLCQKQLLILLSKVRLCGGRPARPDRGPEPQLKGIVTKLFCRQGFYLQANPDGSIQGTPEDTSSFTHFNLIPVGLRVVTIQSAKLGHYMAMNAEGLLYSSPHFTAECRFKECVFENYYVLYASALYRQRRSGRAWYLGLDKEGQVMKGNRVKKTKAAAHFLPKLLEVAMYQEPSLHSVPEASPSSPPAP

T5: FGF12-mGFP-myc (UniProt P61328)
T5 sequence: T2 sequence

T6: FGF13-mGFP-myc (UniProt Q92913)
T6 sequence: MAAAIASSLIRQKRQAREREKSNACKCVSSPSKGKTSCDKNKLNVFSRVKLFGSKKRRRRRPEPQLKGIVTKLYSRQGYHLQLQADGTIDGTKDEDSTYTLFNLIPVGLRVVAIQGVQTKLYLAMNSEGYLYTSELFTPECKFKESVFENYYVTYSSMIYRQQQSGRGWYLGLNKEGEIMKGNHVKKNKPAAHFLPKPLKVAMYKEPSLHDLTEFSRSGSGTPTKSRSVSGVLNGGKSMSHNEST

T7: FGF14-mGFP-myc (UniProt Q92915)
T7 sequence: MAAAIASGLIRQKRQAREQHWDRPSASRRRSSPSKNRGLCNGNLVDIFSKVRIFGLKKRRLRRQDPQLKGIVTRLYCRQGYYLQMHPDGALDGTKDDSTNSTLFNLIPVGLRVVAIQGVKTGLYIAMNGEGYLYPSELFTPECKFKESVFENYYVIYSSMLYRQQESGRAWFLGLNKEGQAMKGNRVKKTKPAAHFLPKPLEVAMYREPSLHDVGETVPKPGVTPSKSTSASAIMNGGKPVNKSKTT

B1: Thyroid hormone receptor-associated protein 3 (protein, UniProt Q9Y2W1 1-955)
chain: MSKTNKSKSGSRSSRSRSASRSRSRSFSKSRSRSRSLSRSRKRRLSSRSRSRSYSPAHNRERNHPRVYQNRDFRGHNRGYRRPYYFRGRNRGFYPWGQYNRGGYGNYRSNWQNYRQAYSPRRGRSRSRSPKRRSPSPRSRSHSRNSDKSSSDRSRRSSSSRSSSNHSRVESSKRKSAKEKKSSSKDSRPSQAAGDNQGDEAKEQTFSGGTSQDTKASESSKPWPDATYGTGSASRASAVSELSPRERSPALKSPLQSVVVRRRSPRPSPVPKPSPPLSSTSQMGSTLPSGAGYQSGTHQGQFDHGSGSLSPSKKSPVGKSPPSTGSTYGSSQKEESAASGGAAYTKRYLEEQKTENGKDKEQKQTNTDKEKIKEKGSFSDTGLGDGKMKSDSFAPKTDSEKPFRGSQSPKRYKLRDDFEKKMADFHKEEMDDQDKDKAKGRKESEFDDEPKFMSKVIGANKNQEEEKSGKWEGLVYAPPGKEKQRKTEELEEESFPERSKKEDRGKRSEGGHRGFVPEKNFRVTAYKAVQEKSSSPPPRKTSESRDKLGAKGDFPTGKSSFSITREAQVNVRMDSFDEDLARPSGLLAQERKLCRDLVHSNKKEQEFRSIFQHIQSAQSQRSPSELFAQHIVTIVHHVKEHHFGSSGMTLHERFTKYLKRGTEQEAAKNKKSPEIHRRIDISPSTFRKHGLAHDEMKSPREPGYKAEGKYKDDPVDLRLDIERRKKHKERDLKRGKSRESVDSRDSSHSRERSAEKTEKTHKGSKKQKKHRRARDRSRSSSSSSQSSHSYKAEEYTEETEEREESTTGFDKSRLGTKDFVGPSERGGGRARGTFQFRARGRGWGRGNYSGNNNNNSNNDFQKRNREEEWDPEYTPKSKKYYLHDDREGEGSDKWVSRGRGRGAFPRGRGRFMFRKSSTSPKWAHDKFSGEEGEIEDDESGTENREEKDNIQPTTE
B2: nucleolar and coiled-body phosphoprotein 1 (protein, UniProt Q14978 1-699)
chain: MADAGIRRVVPSDLYPLVLGFLRDNQLSEVANKFAKATGATQQDANASSLLDIYSFWLKSAKVPERKLQANGPVAKKAKKKASSSDSEDSSEEEEEVQGPPAKKAAVPAKRVGLPPGKAAAKASESSSSEESSDDDDEEDQKKQPVQKGVKPQAKAAKAPPKKAKSSDSDSDSSSEDEPPKNQKPKITPVTVKAQTKAPPKPARAAPKIANGKAASSSSSSSSSSSSDDSEEEKAAATPKKTVPKKQVVAKAPVKAATTPTRKSSSSEDSSSDEEEEQKKPMKNKPGPYSSVPPPSAPPPKKSLGTQPPKKAVEKQQPVESSEDSSDESDSSSEEEKKPPTKAVVSKATTKPPPAKKAAESSSDSSDSDSSEDDEAPSKPAGTTKNSSNKPAVTTKSPAVKPAAAPKQPVGGGQKLLTRKADSSSSEEESSSSEEEKTKKMVATTKPKATAKAALSLPAKQAPQGSRDSSSDSDSSSSEEEEEKTSKSAVKKKPQKVAGGAAPSKPASAKKGKAESSNSSSSDDSSEEEEEKLKGKGSPRPQAPKANGTSALTAQNGKAAKNSEEEEEEKKKAAVVVSKSGSLKKRKQNEAAKEAETPQAKKIKLQTPNTFPKRKKGEKRASSPFRRVREEEIEVDSRVADNSFDAKRGAAGDWGERANQVLKFTKGKSFRHEKTKKKRGSYRGGSISVQVNSIKFDSE
modifications: heavily phosphorylated (sites not given)
B3: treacle ribosome biogenesis factor 1 (protein, UniProt Q13428 1-1488)
chain: MAEARKRRELLPLIYHHLLRAGYVRAAREVKEQSGQKCFLAQPVTLLDIYTHWQQTSELGRKRKAEEDAALQAKKTRVSDPISTSESSEEEEEAEAETAKATPRLASTNSSVLGADLPSSMKEKAKAETEKAGKTGNSMPHPATGKTVANLLSGKSPRKSAEPSANTTLVSETEEEGSVPAFGAAAKPGMVSAGQADSSSEDTSSSSDETDVEGKPSVKPAQVKASSVSTKESPARKAAPAPGKVGDVTPQVKGGALPPAKRAKKPEEESESSEEGSESEEEAPAGTRSQVKASEKILQVRAASAPAKGTPGKGATPAPPGKAGAVASQTKAGKPEEDSESSSEESSDSEEETPAAKALLQAKASGKTSQVGAASAPAKESPRKGAAPAPPGKTGPAVAKAQAGKREEDSQSSSEESDSEEEAPAQAKPSGKAPQVRAASAPAKESPRKGAAPAPPRKTGPAAAQVQVGKQEEDSRSSSEESDSDREALAAMNAAQVKPLGKSPQVKPASTMGMGPLGKGAGPVPPGKVGPATPSAQVGKWEEDSESSSEESSDSSDGEVPTAVAPAQEKSLGNILQAKPTSSPAKGPPQKAGPVAVQVKAEKPMDNSESSEESSDSADSEEAPAAMTAAQAKPALKIPQTKACPKKTNTTASAKVAPVRVGTQAPRKAGTATSPAGSSPAVAGGTQRPAEDSSSSEESDSEEEKTGLAVTVGQAKSVGKGLQVKAASVPVKGSLGQGTAPVLPGKTGPTVTQVKAEKQEDSESSEEESDSEEAAASPAQVKTSVKKTQAKANPAAARAPSAKGTISAPGKVVTAAAQAKQRSPSKVKPPVRNPQNSTVLARGPASVPSVGKAVATAAQAQTGPEEDSGSSEEESDSEEEAETLAQVKPSGKTHQIRAALAPAKESPRKGAAPTPPGKTGPSAAQAGKQDDSGSSSEESDSDGEAPAAVTSAQVIKPPLIFVDPNRSPAGPAATPAQAQAASTPRKARASESTARSSSSESEDEDVIPATQCLTPGIRTNVVTMPTAHPRIAPKASMAGASSSKESSRISDGKKQEGPATQVSKKNPASLPLTQAALKVLAQKASEAQPPVARTQPSSGVDSAVGTLPATSPQSTSVQAKGTNKLRKPKLPEVQQATKAPESSDDSEDSSDSSSGSEEDGEGPQGAKSAHTLGPTPSRTETLVEETAAESSEDDVVAPSQSLLSGYMTPGLTPANSQASKATPKLDSSPSVSSTLAAKDDPDGKQEAKPQQAAGMLSPKTGGKEAASGTTPQKSRKPKKGAGNPQASTLALQSNITQCLLGQPWPLNEAQVQASVVKVLTELLEQERKKVVDTTKESSRKGWESRKRKLSGDQPAARTPRSKKKKKLGAGEGGEASVSPEKTSTTSKGKAKRDKASGDVKEKKGKGSLGSQGAKDEPEEELQKGMGTVEGGDQSNPKSKKEKKKSDKRKKDKEKKEKKKKAKKASTKDSESPSQKKKKKKKKTAEQTV
modifications: heavily phosphorylated (sites not given)

Key:
[1] = target: T1, recombinant His-tagged FGF12; assay: pull-down; recombinant FGF12-His or FGF12Δ-His bound to Ni Sepharose (1 h, 4 °C), incubated with U2OS cell lysate (0.15 M KCl, 40 mM Tris, 1% NP-40, 1 mM EDTA, pH 7.2) overnight at 4 °C; western blotting; also with nuclease-treated lysate (no effect); only the target purified
FGF12-SBP [2] = target: T2, FGF12-SBP; assay: pull-down; lysate of U2OS-FGF12-SBP cells incubated with streptavidin agarose; eluted with Laemmli sample buffer; western blotting; U2OS cells as control
FGF12-SBP [3] = target: T2, FGF12-SBP; assay: native gel or EMSA; FGF12-SBP complexes from U2OS-FGF12-SBP lysate on streptavidin agarose, eluted with 4 mM biotin, 2D BN-PAGE (4–13%) / SDS-PAGE, western blotting
[4] = target: T3, FGF12 (endogenous, HEK 293 cells lacking ectopic FGF12) (human (endogenous in HEK 293)); assay: proximity ligation; in situ PLA in fixed, permeabilized HEK 293 cells lacking ectopic FGF12, rabbit anti-FGF12 and mouse anti-NOLC1 or anti-TCOF1; also after siRNA against NOLC1 or TCOF1
FGF11-mGFP-myc = target: T4, FGF11-mGFP-myc; assay: co-IP; the paper calls it pull-down: lysates of U2OS cells stably expressing FHF-mGFP-myc incubated with anti c-myc magnetic beads / anti-myc agarose; western blotting (GFP, NOLC1, TCOF1); U2OS cells as control
FGF12-mGFP-myc [5] = target: T5, FGF12-mGFP-myc; assay: as above
FGF13-mGFP-myc = target: T6, FGF13-mGFP-myc; assay: as above
FGF14-mGFP-myc = target: T7, FGF14-mGFP-myc; assay: as above
FGF12-mGFP-myc [6] = target: T5, FGF12-mGFP-myc; assay: proximity ligation; in situ PLA (Duolink) in fixed, permeabilized U2OS-FGF12-mGFP-myc cells with antibodies against NOLC1 and FGF12, TCOF1 and FGF12 or NOLC1 and TCOF1; also after siRNA against NOLC1 or TCOF1 or control siRNA
[7] = target: T1, recombinant His-tagged FGF12; assay: condition: only U2OS lysate treated with calf intestinal alkaline phosphatase (CIP); pull-down; recombinant FGF12-His bound to Ni Sepharose, U2OS cell lysate treated with calf intestinal alkaline phosphatase (CIP); western blotting; only the target purified

Binder | binding [1] | binding (FGF12-SBP [2]) | binding (FGF12-SBP [3]) | binding [4] | binding (FGF11-mGFP-myc) | binding (FGF12-mGFP-myc [5]) | binding (FGF13-mGFP-myc) | binding (FGF14-mGFP-myc) | binding (FGF12-mGFP-myc [6]) | binding [7]
B1 | binds | – | – | – | – | – | – | – | – | –
B2 | binds | binds | binds | binds | binds | binds | binds | binds | binds | no binding
B3 | binds | binds | binds | binds | no binding | binds | no binding | no binding | binds | –

— paper PMC9677703
